For 167 variants, self-cleavage results are on record in the RNAGym collection of RNA variant scans (doi:10.7554/elife.90254).

B1: LINE1-mini (parent)
chain: GGCAGAGCUCAACACAGCGUGGCAAAGUGGCUGUGGCUAGACUGCC

Read counts are not given, so values of variants with three or more changes are uncertain.

Variants of B1 are the subject of the data set. In words: self-cleavage, relative activity (ratio to wild type); higher = more cleavage; in vitro, sequencing; the parent is a self-cleaving ribozyme.
In the case of G2A C8A C37A, the self-cleavage turned out to be 0.5.
The same measure for C3U C10A C18A C31A A41C: 0.04; for G5C G17A G22C: 0.04; for G17A G21U U38A: 0.18.
With U9C C10U C18U G19U A24G G27U, the self-cleavage stood at 0.02.
A12G C15G G44A: the self-cleavage came out at 0.
As for A14G C15U C31U A41C, the self-cleavage was determined as 0.03.
Under C3A C13U A14C G22C G30A G33C C37U stands 0.19; under G5U U20G G21U A25G A26U G29C G44C, 0.01.
The same measure for A16C G27U G30A G40C: 0.04; for G7U U20A G30A: 0.01.
The same measure for A16U G21C U32C U34C: 0.01; for U9C U20G G29A G33U: 0.02.
With A25G G40C C42U, the self-cleavage was found to be 0.03.
Under G5U U9G C10U A16G G19U G22C A24G U32G stands 0.01.
Under A6G U9G A11G A12C G17A G30A G44U stands 0.03.
The same measure for A4G G7C C10A A12C A14C: 0.03; for C13U G30U C42U: 0.02; for G1C C37U U43C: 0.
C8A C13G A14G: the self-cleavage worked out at 0.18.
In the case of U9A C13G C46A, the self-cleavage is 0.14.
The same measure for U28C G35A G36C U38A: 0.04.
The same measure for A6G G21U G40U: 0.16; for G1U G7U U9G G21A: 0.02.
For the variant C10A G21A G44U, the self-cleavage is 0.02.
Under C18G A24G C31U stands 0.
As for A11U A14G C18G G19U C31G C45G, the self-cleavage is 0.02.
As for C3G A11U G35U C37A, the self-cleavage stood at 0.01.
The same measure for C10G C18U G29A G33A U34C C37G G44U: 0; for C10A A11G C31U G33U: 0.02; for G30C A41U C42U: 0.04.
Under A4G C10A C23G A26U U28G stands 0.64; under A26C G30A G36C C37G, 0.12; under G2A A14C C37U, 0.09.
Under C10U A11C G44A C45A stands 0.03.
As for A11G G19A U34C, the self-cleavage was 0.02.
Consider C13U A14C C15A A16G G17C C18G, for which the self-cleavage is 0.04.
On to A4G G7C A11U U28A G44U, for which the self-cleavage came to 0.02.
The same measure for C3U G7C G17C C23A A25U C42A: 0.07; for C10A A12C G22C: 0.03; for C8A G19A A25G G29U C37U: 0.29.
Under G22A U38G G44C stands 0.02.
C8U U9A C10U: the self-cleavage is 0.05.
Under G2U C8A U32A G33C stands 0.06; under G7A A25C U28A G29C G33C, 0.57; under G2U C13G G19U A25C, 0.03.
The same measure for G1U A11U U20C: 0.03; for A11G C13G G27A G36A: 0.05.
For the variant C18A G44U C46A, the self-cleavage was 0.12.
The same measure for G7C G21A C23G G30C C31U C37G G44U: 0.04.
The same measure for C8U A12G C23U G29C U34G G40A: 0.01; for C13G A14U G36U: 0.04.
Under C10A U28C U32G G35U stands 0.02.
As to G1C C13A A16G C18A U28A G30C A39U, the self-cleavage stood at 0.02.
The same measure for G2C U34C C46A: 0.01; for G5U C10G C15U G22C: 0.
Under G5A C15U G17A A25C G35U stands 0.07; under G5C C10A C18G, 0.03.
In the case of A6C C8A G30C G40U, the self-cleavage turned out to be 0.1.
The same measure for G27U G33U G44A: 0.07; for A14U G35C G44A: 0.28; for G1U C13A C23U: 0.03.
The same measure for U20G A24U G33A C46A: 0.03.
Regarding G7A G17U C23G A24C G30C, the self-cleavage was 0.03.
Under A6G G22A C31A G44C stands 0.04.
Consider C3G G21C C45A, for which the self-cleavage worked out at 1.38.
C3G G17C G33U U38C C45G C46U: the self-cleavage is 0.06.
The same measure for G1A G2A C31G U38G U43G: 0.08.
For G5U U20G G27A U38C, the self-cleavage came out at 0.06.
Take G1C C18G C46U: the self-cleavage turned out to be 0.03.
Under G5U G27C A39U stands 0.02.
Consider G7C A39C G40A A41C, for which the self-cleavage turned out to be 0.08.
Consider A12C A39U G40U, for which the self-cleavage was 0.01.
The same measure for G27C C42U C45G: 0.1.
The same measure for C3G C31U C37A: 0.02; for C10G C13U C18U U20G C23U A25U G30C C46U: 0.02; for C13U C18U U34A C37U U38A C42G: 0.
The same measure for G1U C3G C10A A16C C18U: 0.02; for G2A G5U U20C C23G U28C G29C G36C A39G: 0.28.
In the case of C23A G27U G29C C45A, the self-cleavage was 0.28.
Under G7A A25C G33A C42G stands 0.15; under A6C G35U U43A, 0.09; under C10G G17A U20C C45U, 0.05.
Turning to G30U G36U C46U, the self-cleavage was 0.07.
The same measure for G21U A24U G33C C37U: 0.04; for G1U G7U C31G A39U: 0.09.
A16U G17U C37U: the self-cleavage came out at 0.07.
The same measure for C8U G35A G36U C45A: 0.16; for U20G G33A C42A: 0.24; for G22U A24C U38C: 0.32.
Under G21U A39U A41C stands 0.08; under C3G A4G G33U, 0.13; under C3G U38G A39G, 0.01.
Regarding C3G A6U A14G C37G, the self-cleavage worked out at 0.19.
Under G29U U32G G36A stands 0.05; under C15A A16G A26C, 0.03; under A11C G21C C23A G30C U32A C42A, 0.
Under A11U G29U C42G stands 0.
Under C8A U9G C10A C37A U43C stands 0.03; under G22A C23U A25G C45A, 1.53; under A11U C18G G19C G21U G22U, 0.1.
Take C10G U20G U38C: the self-cleavage amounted to 0.
Consider A12G G17A C18A, for which the self-cleavage stood at 0.03.
Consider A4C C13U A26U, for which the self-cleavage came out at 0.05.
As to G2A C8U G27A G35U, the self-cleavage was 0.6.
The same measure for G7C U20A G30U U43A: 0.02.
Under C10A G19C G35C stands 0.01; under C10G A25G G29U G33U, 0.01.
Under G17A G29U U32A stands 0.02; under G17C A24G A39G C42U, 0.02; under G33A G35C G40C C46G, 0.07.
Turning to G1U C18U G30C C31U A39C, the self-cleavage came out at 0.03.
Under A4U G7U C13G U43A C46U stands 0.02; under G7A A11U G22A U28A, 0.02.
With U9A C18G C31G, the self-cleavage is 0.02.
For the variant C10A C18A C37U G40C G44U C46U, the self-cleavage was 0.
In the case of A12G U38C G40A C42G C45G, the self-cleavage was 0.02.
In the case of A4U C8G G36A C42A, the self-cleavage was found to be 0.01.
The same measure for A4U U20A G36U: 0.31; for C8U C13U A26U C46A: 0.04; for C15A U32A C42U C46U: 0.04.
As to G21U A25C G29C A39U, the self-cleavage is 0.13.
Turning to U20C U32C U43A, the self-cleavage came to 0.01.
Under G21C C23A A41C C42U C46A stands 0.05; under G1C C8U C15A U20G, 0.04; under A4G C15A U43A, 0.01.
Consider A6U C8G C45G, for which the self-cleavage was found to be 0.21.
Under A14C G21U G35U stands 0.07.
Under C18U C23A A24U G33U G40C stands 0.02.
Under G19C G35A G40U stands 0.1; under C10G G17C U34G G40U, 0.01.
With A11G U20C G21A A24G U32C C37U, the self-cleavage is 0.02.
Under G2C C13A G30C stands 0.24.
Under A14C C18U G35C stands 0.03; under G19U G36U G40U C42G, 0.21; under A4C C13G A16C G29U G36A, 0.02.
The same measure for G2A C10A A16C G27C: 0.03.
With C3U A12G A16G, the self-cleavage amounted to 0.08.
Under A24C A25U A41C stands 0.06.
Under C13A C23A U28C G29U stands 0.01; under G7U C13A A14G C31U U34C, 0.13.
Under G2U A11C C15G G36A U43A stands 0; under C3G C18G A41U C46U, 0.01; under C31A U32A C45G, 0.09.
As for G2C C13A G19A A25G, the self-cleavage amounted to 0.09.
The same measure for C15G G21A C23A: 0.3.
Under G5U A11C C13A U43C stands 0.05; under G7U G17C G29A G35C, 0.29.
As to G29U G35A A41U, the self-cleavage is 0.11.
Under A11G C23U G29U stands 0.02; under C18A C23U C42U, 0.14.
The same measure for A6U G19U C45G: 0.38.
The same measure for G2U A11G A26C C31A G44C: 0.
For the variant G5A U9C U20A A24G U43A, the self-cleavage was 0.01.
The same measure for C3G A6G G17U A25C U38A C42G: 0.08; for C15A U28G G33A: 0.03; for C3G U9G C10G C13G A25U: 0.02.
The same measure for G17U U20A G36C C37A U38G G40A: 0.03.
Under A16C G19U U28A U34G stands 0.03; under C18U G27C C45G, 0.37.
Take G1U C13A G40A U43A: the self-cleavage came out at 0.03.
C10U A11G C46A: the self-cleavage was found to be 0.02.
The same measure for A4G C10G G22C G27U G30A C31A U43G: 0; for A4G U28A C31U: 0.25; for C10U G19C G27A: 0.07.
Under U9C G17C U43C stands 0.01; under C10A A12U G19C A25U G40C, 0.01.
